Results: the supplement of paper PMC3334620
Over roughly 33,000 sequences, “E-score (-0.5 to 0.5)” has its median near -0.054; the highest 2% begin near 0.35. The list shows a part of the results.

The sequences below were run against T1, Stb5 (UniProt P38699) (assay: PBM E-score (8-mer binding enrichment) (E-score (-0.5 to 0.5)); higher = stronger / more preferred TF binding; most listed sequences are background and not binding sites). Details: protein concentration: 200 nM; construct: GST-full length.
T1 sequence: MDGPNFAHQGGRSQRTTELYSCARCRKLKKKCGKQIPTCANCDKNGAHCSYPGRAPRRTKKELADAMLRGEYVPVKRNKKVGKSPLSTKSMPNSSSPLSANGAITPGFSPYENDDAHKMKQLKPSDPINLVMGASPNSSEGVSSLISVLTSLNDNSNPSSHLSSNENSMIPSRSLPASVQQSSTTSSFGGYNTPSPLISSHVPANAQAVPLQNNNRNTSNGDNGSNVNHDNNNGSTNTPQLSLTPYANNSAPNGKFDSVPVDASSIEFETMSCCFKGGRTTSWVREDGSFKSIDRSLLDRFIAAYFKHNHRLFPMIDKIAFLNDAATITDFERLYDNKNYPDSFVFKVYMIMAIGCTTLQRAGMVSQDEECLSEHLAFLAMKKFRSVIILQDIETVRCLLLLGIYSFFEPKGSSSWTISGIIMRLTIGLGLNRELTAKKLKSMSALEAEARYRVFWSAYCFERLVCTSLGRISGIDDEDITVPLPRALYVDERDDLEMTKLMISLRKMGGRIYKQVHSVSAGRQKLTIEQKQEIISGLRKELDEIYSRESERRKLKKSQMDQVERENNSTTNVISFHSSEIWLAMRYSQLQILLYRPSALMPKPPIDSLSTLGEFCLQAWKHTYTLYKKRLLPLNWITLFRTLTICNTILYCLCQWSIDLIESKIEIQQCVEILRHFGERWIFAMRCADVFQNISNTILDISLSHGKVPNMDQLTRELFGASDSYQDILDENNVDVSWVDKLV
Procedure, shortened: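 Universal all-10-mer Agilent arrays, double-stranded by primer extension on fresh or once-stripped slides, were probed with about 100-200 nM GST-tagged yeast transcription factors made by PURExpress. Fluorescent anti-GST detected bound protein, and masliner normalised the scans. E-scores from the Universal PBM Analysis Suite were given to each ungapped eight-base word pooled with its reverse complement.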

Row | Sequence | PBM E-score
1 | CAAAAGTA | -0.192
2 | GGTTTTTA | 0.102
3 | AGTTGGGC | -0.17
4 | GACCGAAA | 0.23
5 | CCTACGAC | -0.229
6 | CGCTGAGC | -0.103
7 | TCGTAAAA | -0.0435
8 | CCAACCAA | -0.0723
9 | ACACGGCC | 0.116
10 | CAGCCCTC | -0.0803
11 | AGGCGGTG | 0.342
12 | ACTAGCCG | -0.0412
13 | CCTCTGCA | -0.214
14 | CTATGGCA | -0.142
15 | TCATGCCA | -0.253
16 | CGCGCAAC | 0.09
17 | ATGGACCA | -0.144
18 | ATCCGTGC | 0.062
19 | GTGTGTTA | -0.00114
20 | AATCTAAT | -0.0604
21 | CGGCGGAA | 0.348
22 | CTAGAGTA | -0.0292

Row | Sequence | PBM E-score
23 | AATTCGTC | -0.107
24 | ATCAATAG | -0.165
25 | AACCCTTC | -0.131
26 | CTCCCTCA | -0.151
27 | ATAGGACA | -0.148
28 | CCACGTTA | -0.198
29 | AAATGGGG | -0.0385
30 | ACTATCCA | 0.0766
31 | CCCGATGC | 0.314
32 | GCCCTGGA | 0.124
33 | ACACAAAC | 0.0561
34 | ACACCAGT | -0.186
35 | AGAACCCA | -0.339
36 | CATAGGAA | -0.0944
37 | GGCTATGA | -0.0374
38 | TATTTGGA | -0.157
39 | GAGGACCA | -0.254
40 | AGTCCTCC | -0.0869
41 | CCACGAGA | -0.203
42 | CCCAGACA | -0.23
43 | GCACTGAC | -0.002
44 | GAGGGACA | -0.148

Row | Sequence | PBM E-score
45 | ATGTTAAT | -0.107
46 | CCAGCCGC | -0.062
47 | AGATTAAA | 0.00141
48 | CCATTGAC | -0.00058
49 | ATTCTAAA | -0.0797
50 | TCCGTTCA | 0.0759
51 | AGAGTACG | -0.176
52 | AACGTAAT | -0.222
53 | AGGCTCGC | 0.0633
54 | CGAAGGAA | -0.188
55 | ATAAGGGA | -0.229
56 | ATCGGAGC | 0.324
57 | CTTTTAAA | 0.178
58 | ATTACCTG | -0.0469
59 | CCGCAGCA | 0.246
60 | AAGGCCGT | 0.421
61 | ACCGCATG | 0.172
62 | AGTGTTAC | -0.0686
63 | AGGCGCCG | 0.245
64 | ACGCTTGA | -0.115
65 | AAATGGCA | -0.114
66 | GTAGTATA | 0.129

Row | Sequence | PBM E-score
67 | AAGGCTTA | -0.203
68 | CATGCTCG | -0.183
69 | ATGGGACG | -0.115
70 | CAAAGGGC | -0.0898
71 | AGTTTGAT | -0.0389
72 | CAACCCCA | -0.221
73 | CAAAGTGA | -0.131
74 | CAGACACC | 0.0808
75 | CGGTCTCC | 0.195
76 | ACGATACG | -0.389
77 | CGAAGGGA | -0.0862
78 | GGCAACGA | -0.0788
79 | GAATCGGA | 0.241
80 | CCCGACCG | 0.355
81 | CTAGTCCA | -0.00206
82 | ACTGACCC | -0.00168
83 | CGGGTCTA | 0.412
84 | AGTAGTGG | -0.202
85 | AATTAGAA | 0.00026
86 | ACATGTCA | -0.148
87 | AGGCGGGC | 0.275
88 | ACCCGTAC | 0.0674

Row | Sequence | PBM E-score
89 | ATAAAGGC | 0.128
90 | AGAACTCA | -0.191
91 | AGTGATCA | -0.104
92 | AGACGTAT | -0.172
93 | GGCGCACC | 0.0839
94 | CCAAACCA | -0.074
95 | AACTGCAG | -0.159
96 | GTTATTAA | 0.178
97 | GCTGCAGA | -0.14
98 | GACACTTA | 0.0678
99 | ATGTCAAA | -0.107
100 | AAACACTT | -0.1
101 | AACGCGAG | -0.161
102 | TAGGATCA | -0.221
103 | ACACGCAA | -0.202
104 | GCAACCCA | -0.314
105 | GCCCCGGA | 0.289
106 | CCCCGTCA | 0.265
107 | ATTCCAGC | -0.138
108 | ACGTATAA | 0.0262
109 | ACCCCTAG | -0.161
